The whole screen tested about 280,000 compounds, of which about 1,100 (0.39%) were called active. The inconclusive results got no clear call from the source; some entries with a clear call stand among them for comparison. Calls come from the whole dose curve; as a rule, active = well fitted inhibition curve with a large enough effect; inconclusive = small, poorly fitted or top-dose-only effect, or effect the other way; inactive = flat fitted curve, though single readings scatter. Potencies of inconclusive entries are left out as doubtful fits.
The compounds below were run against Microtubule-associated protein tau (Homo sapiens) (UniProt P10636) (assay: qHTS for Inhibitors of Tau Fibril Formation, Fluorescence Polarization). Details: K18 P301L tau heparin fibrillization, Alexa594 FP, 6 h; series mostly up to 57.7 µM; activity, negative = inhibition: at the top concentration.
Sequence of UniProt P10636 (P10636 whole entry, looked up): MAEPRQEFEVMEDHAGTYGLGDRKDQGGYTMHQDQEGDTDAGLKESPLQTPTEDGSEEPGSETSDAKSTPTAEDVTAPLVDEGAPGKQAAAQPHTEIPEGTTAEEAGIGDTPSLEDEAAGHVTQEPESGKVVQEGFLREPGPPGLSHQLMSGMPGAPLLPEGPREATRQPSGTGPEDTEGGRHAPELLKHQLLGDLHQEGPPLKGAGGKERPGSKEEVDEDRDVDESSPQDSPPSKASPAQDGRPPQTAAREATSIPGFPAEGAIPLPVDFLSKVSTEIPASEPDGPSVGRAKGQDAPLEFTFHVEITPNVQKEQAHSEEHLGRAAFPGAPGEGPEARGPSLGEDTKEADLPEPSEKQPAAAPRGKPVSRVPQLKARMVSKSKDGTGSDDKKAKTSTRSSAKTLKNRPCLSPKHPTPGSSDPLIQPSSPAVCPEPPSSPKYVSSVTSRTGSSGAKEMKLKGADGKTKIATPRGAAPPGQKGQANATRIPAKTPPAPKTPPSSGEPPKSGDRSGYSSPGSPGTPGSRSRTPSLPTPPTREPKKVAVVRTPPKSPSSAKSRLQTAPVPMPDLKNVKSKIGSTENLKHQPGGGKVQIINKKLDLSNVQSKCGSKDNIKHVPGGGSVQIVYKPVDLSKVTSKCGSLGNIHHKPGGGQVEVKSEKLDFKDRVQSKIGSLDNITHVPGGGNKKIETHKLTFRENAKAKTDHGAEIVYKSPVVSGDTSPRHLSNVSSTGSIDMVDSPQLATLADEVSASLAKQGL
In short: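 Quantitative HTS format: compounds meet 15 uM recombinant K18 P301L tau and Alexa 594-tau tracer in 100 mM sodium acetate pH 7; 20 uM heparin triggers fibrillization at 37 C over 6 hr; FP gives the signal.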
In the case of `COc1ccc(-c2csc(NC(=S)NC(=O)/C=C/c3ccco3)n2)cc1OC`, the “activity, negative = inhibition” value is reported as inactive: -12%. In the case of `Fc1ccc(-n2c(-c3ccc4ccccc4n3)n[nH]c2=S)cc1`, the activity, negative = inhibition is reported as inactive: -6.03% [at 2.34 µM]. In the case of `NS(=O)(=O)c1ccc(CCNC(=O)Nc2ccc(Cl)c(Cl)c2)cc1`, the Potency is reported as inconclusive [inhibitor, single point]. In the case of `CN(C)c1ccc(C(=C2C=CC(=[N+](C)C)C=C2)c2ccc(N(C)C)cc2)cc1`, the Potency is reported as active: 15.8 µM. In the case of `Cc1nnc(NC(=O)CSc2ccc(-c3ccc(Cl)cc3)nn2)s1`, the “activity, negative = inhibition” value is reported as inactive: -6.27%. For `COC(=O)c1sc(-c2ccccc2)cc1NC(=O)c1cccc(Cl)c1`, the Potency was inconclusive [inhibitor, partial curve]. For `Cc1cccc(NC(=O)CSc2nnc(CCC(=O)Nc3ccc(C)c(Cl)c3)n2C)c1`, the Potency was inconclusive [inhibitor, partial curve]. With `COc1ccc(N=Cc2[nH]c3ccccc3c2O)cc1` the Potency was inconclusive [inhibitor, partial curve]. For `CCN(CC)S(=O)(=O)c1cc([N+](=O)[O-])ccc1NNC(=O)Nc1ccc(Cl)c(Cl)c1`, the Potency was inconclusive [inhibitor, partial curve]. With `O=C(Nc1ccc(C(=O)N2CCOCC2)cc1)c1cc(-c2cccnc2)nc2ccc(Br)cc12` the Potency was inconclusive [inhibitor, single point]. `CCOC(=O)c1c(-c2ccccc2)csc1NC(=O)c1cccc(N2C(=O)CCC2=O)c1` was tested, and the Potency was inconclusive [inhibitor, single point]. `CCOc1cc(C(Nc2cc(C)ccn2)c2ccc3cccnc3c2O)ccc1OC` (stereo not given) was tested, and the “activity, negative = inhibition” value was inactive: -12.9%. For `O=C(Nc1cn(-c2ccccc2)nc1-c1cccs1)c1ccco1`, the Potency was inconclusive [inhibitor, partial curve]. `CC(=O)N1CCN(C(=S)c2ccc(-c3ccc(Cl)cc3)o2)CC1` was tested, and the “activity, negative = inhibition” value was inactive: 1.12%. For `N[C@@]1(C(=O)O)CO[C@H]2[C@H](C(=O)O)[C@H]21`, the “activity, negative = inhibition” value was inactive: 1.8%. For `Cc1occc1-c1nnc(SCC(=O)NCc2ccco2)n1CC(C)C`, the Potency was inconclusive [inhibitor, single point]. `O=[N+]([O-])c1ccccc1/C=N/NC1=NS(=O)(=O)c2ccccc21` was tested, and the “activity, negative = inhibition” value was inactive: 6.85%. `COc1ccccc1CNc1ccc([N+](=O)[O-])cc1C` was tested, and the Potency was inconclusive [inhibitor, partial curve]. For `CCc1ccccc1S(=O)(=O)Cc1ccc(C(=O)NCc2cccs2)o1`, the Potency was inconclusive [inhibitor, single point]. `CCOc1ccc(CNC(=O)CCn2nc(C)c3c(C)n(-c4ccccc4)nc3c2=O)cc1` was tested, and the “activity, negative = inhibition” value was inactive: 3.38%. In the case of `O=c1c(-c2cc(O)c(O)c(O)c2)coc2cc(O)c(O)c(O)c12`, the Potency is reported as active: 7.08 µM. For `COc1ccc(C(=O)Nc2ccc(-c3cc4ccccc4oc3=O)c(C)c2)cc1Br`, the Potency was inconclusive [inhibitor, single point]. With `Cc1ccc(O)c(-c2ccnc3cc(-c4ccc(Cl)cc4)nn23)c1` the Potency was active: 31.6 µM. For `Cc1nc(-c2ccc(Cl)cc2)sc1CCNC(=O)c1ccco1`, the “activity, negative = inhibition” value was inactive: -4.86%. For `Cc1ccccc1NC(=O)CCc1c(C)nn(-c2ccc(N3CCCCC3)nn2)c1C`, the Potency was inconclusive [inhibitor, single point]. In the case of `O=S(=O)(/C(=C/c1ccc(C(F)(F)F)cc1)c1nc2ccccc2[nH]1)c1ccccc1`, the Potency is reported as inconclusive [inhibitor, partial curve]. For `CCc1ccc(-n2c(=O)c3ccc(C(=O)NCCc4ccccc4)cc3n(CC(N)=O)c2=O)cc1`, the Potency was inconclusive [inhibitor, partial curve]. For `O=C(Nc1nnc(S(=O)(=O)N2CCOCC2)s1)c1cccc(F)c1`, the Potency was inconclusive [inhibitor, partial curve]. In the case of `CN(C)c1ccc(-c2n[nH]c(=S)n2-c2ccccc2)cc1`, the “activity, negative = inhibition” value is reported as inactive: 9.48%. `CCCCOc1ccc(C(=O)NCC2(N3CCN(C)CC3)CCCCC2)cc1` was tested, and the “activity, negative = inhibition” value was inactive: -0.242%. For `Cc1ccc2nc(SCC(=O)c3ccc(O)cc3O)[nH]c2c1`, the Potency was inconclusive [inhibitor, single point]. In the case of `Cc1ccc2c(c1)C(c1ccccc1)N(C(=O)c1ccc(OC(C)C)cc1)CC(=O)N2` (stereo not given), the “activity, negative = inhibition” value is reported as inactive: 1.8%. In the case of `Cc1cccc(CCNC(=O)Cn2ncc3c(=O)oc4ccccc4c32)c1`, the Potency is reported as inconclusive [inhibitor, single point]. With `CC(=O)c1cccc(NC(=O)C(Cc2ccccc2)NS(=O)(=O)c2ccc(Br)s2)c1` (stereo not given) the Potency was inconclusive [inhibitor, single point]. For `CCN(CC)S(=O)(=O)c1ccc2c(c1)c(=O)c(C(=O)NCc1ccc(Cl)cc1)cn2C`, the “activity, negative = inhibition” value was inactive: -3.89%. In the case of `O=c1cc(-c2ccc(F)cc2)[nH][nH]1`, the Potency is reported as inconclusive [inhibitor, full curve, poor fit]. In the case of `COc1ccc(C(=O)COC(=O)c2cc(-c3ccccc3)nc3c(C)cccc23)cc1`, the Potency is reported as inconclusive [inhibitor, partial curve]. With `COc1cc(/C=N/OCC(=O)Nc2ccc(OC(F)F)cc2)ccc1OCc1ccccc1` the Potency was inconclusive [inhibitor, full curve, poor fit]. In the case of `Cc1ccc(NC(=O)CSc2nc3ccc(NC(=O)c4cccs4)cc3s2)c(C)c1`, the Potency is reported as active: 17.8 µM. With `C/C(=N\NC(=O)CC#N)c1cc2ccccc2oc1=O` the “activity, negative = inhibition” value was inactive: -4.64%. `Brc1ccc(/C=N/Nc2ccccn2)cc1` was tested, and the Potency was inconclusive [activator, partial curve, poor fit]. With `Cc1ccc(-c2[nH]c3ccccc3c2SCCN)cc1` the Potency was inconclusive [activator, partial curve]. `O=C(N/N=C/c1nn(-c2ccccc2)cc1-c1ccccc1)c1ccncc1` was tested, and the Potency was inconclusive [inhibitor, partial curve, poor fit]. In the case of `CCOc1ccc(C(=O)CC(NCc2cccs2)C(=O)O)cc1` (stereo not given), the Potency is reported as inconclusive [inhibitor, partial curve, poor fit]. For `Cc1nnc(C)n1/N=C/c1cc(Br)ccc1O`, the “activity, negative = inhibition” value was inactive: -3.09%.

— PubChem BioAssay AID1468 (National Center for Advancing Translational Sciences (NCATS), 2008)
% is set by controls: 0 for no effect and ±100 for the full control effect; potency is the fitted concentration of half-maximal effect; tags give direction and shape of the fitted curve.
Note: nearly all actives have a fitted effect of over 55% in size.
